# In PubChem BioAssay AID686971 (National Center for Advancing Translational Sciences (NCATS), 2013):
# Screen size: about 360,000 compounds; about 7,500 (2.1%) were called active. The shares of active, inactive and inconclusive entries below differ from those in the screen. Calls follow the shape of the dose curve; as a rule, active = well fitted cell-killing curve with a large enough effect; inconclusive = small, poorly fitted or top-dose-only effect, or effect the other way, or another doubt; inactive = no such curve, though single readings can be large or run the other way. Potencies of inconclusive entries are left out as doubtful fits.
# Experiment: qHTS for induction of synthetic lethality in tumor cells producing 2HG: qHTS for the HT-1080-IDH1KD cell line;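 as to activity, negative = toxicity: 0% = DMSO wells and -100% = cell-free medium wells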
# Conditions: HT-1080 IDH1 knockdown viability, ATP luminescence, 48 h; activity, negative = toxicity: at 46.1 µM (top of the series) unless noted
# Procedure, shortened: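 Cytotoxicity counter-line: IDH1KD HT-1080, 48 h, CellTiter-Glo. Curves classed by r2, magnitude and activity.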
# Potency is read from the fitted curve at half-maximal effect; tags tell the direction and shape of the fitted curve.
Structure (SMILES),Potency,"activity, negative = toxicity"
O=C(NNC1=Nc2ccccc2SC1)c1ccc(Cl)cc1,"inconclusive [cytotoxic, partial curve]",
CN(C1CCCCC1)S(=O)(=O)c1ccc(NC(=S)NC(=O)c2cccs2)cc1,active: 7.94 µM,
N#CCC(=O)N/N=C/c1cn(Cc2ccc(Cl)cc2Cl)c2ccccc12,"inconclusive [cytotoxic, partial curve]",
COc1ccc(C(=O)NNC(=O)c2ccc3ccccc3n2)cc1,"inconclusive [cytotoxic, partial curve]",
CC(C)CC(=O)Nc1nc2ccc(S(=O)(=O)N3CCOCC3)cc2s1,active: 18.4 µM,
C/C(=N\NC(=O)c1cc(-c2ccco2)nc2ccccc12)c1cccnc1,"inconclusive [cytotoxic, partial curve]",
CCN(CC)CCNc1ncnc2c1sc1nc(N3CCOCC3)c3c(c12)CCCC3,inactive,
COc1cc(C2c3[nH]c4ccccc4c3CCN2Cc2cn(C)nc2C)ccc1F (stereo unspecified),"inconclusive [cytotoxic, partial curve]",
Cc1ccccc1NS(=O)(=O)c1cc(C(=O)Nc2cccc([N+](=O)[O-])c2)ccc1C,active: 20.6 µM,
COC(=O)CN1C(=O)C(O)(CC(=O)c2ccc(Br)cc2)c2ccccc21 (stereo unspecified),inactive,
CCOC(=O)[C@]12CCC=C1N(Cc1ccc(Cl)cc1Cl)C(=O)[C@H](CC(=O)NCc1cccc(C(F)(F)F)c1)C2,"inconclusive [cytotoxic, single point]",
CCN(CC)c1ccc2c(c1)OC(N)=C(C#N)C2c1cccnc1 (stereo unspecified),active: 0.231 µM,
O=C(CCNc1ccccc1)c1cccc([N+](=O)[O-])c1,"inconclusive [cytotoxic, single point]",
Cc1ccc(NC(=O)N2CCC(c3nc4c(nnn4Cc4c(F)cccc4Cl)c(=O)[nH]3)CC2)cc1,"inconclusive [cytotoxic, single point]",
N#Cc1ccc(C(=O)Nc2nc(-c3cccs3)c(C(=O)C(F)(F)F)s2)cc1,"inconclusive [cytotoxic, full curve]",
Cc1ncc(CO)c(/C=N/NC(=S)Nc2ccc(F)cc2)c1O,"inconclusive [cytotoxic, partial curve]",
O=C(NCCCN1CCOCC1)c1cc(-c2ccccc2)on1,"inconclusive [cytotoxic, partial curve]",
CCN(C(=O)CSc1nnc(-c2ccccc2Cl)n1N)c1c(N)n(Cc2ccccc2)c(=O)[nH]c1=O,inactive,
Cc1c(N(C(=O)Cc2cccs2)C2(C(=O)NC3CCCC3)CCCCC2)c(=O)n(-c2ccccc2)n1C,"inconclusive [rising, partial curve, poor fit]",
O=C(Nc1cccc(-c2csc(Nc3cccc(C(F)(F)F)c3)n2)c1)c1ccccc1,"inconclusive [cytotoxic, partial curve]",
O=C(Nc1ccc(Cn2cccn2)cc1)c1ccc(COc2cccc(Br)c2)cc1,"inconclusive [cytotoxic, full curve, poor fit]",
CC(=O)Nc1ccc(C(=O)OCC(=O)NCc2cccs2)cc1,inactive,
Cc1nc(C(F)(F)F)ccc1C(=O)N1CCC1(C)C(=O)NS(=O)(=O)c1ccc(Cl)cc1 (stereo unspecified),inactive,
CC(=O)c1sc(NC(=O)c2ccccc2F)nc1C,"inconclusive [cytotoxic, single point]",

Structure (SMILES),Potency,"activity, negative = toxicity"
CN1CCc2c(sc(NC(=O)C3CCCCC3)c2C(N)=O)C1,inactive,
COc1ccc(S(=O)(=O)Nc2c(C)nn(C)c2C)cc1Br,inactive,
O=C(NCCCn1ccnc1)c1cc(-c2ccc(Cl)cc2)nc2ccccc12,,inconclusive: -33.3% [cytotoxic]
Cc1cccc2c1-c1sc(C(=O)NCCCN3CCC(C)CC3)cc1CO2,"inconclusive [cytotoxic, single point]",
CCOCCCn1c(SCc2nc3ccccc3s2)nc2ccccc2c1=O,"inconclusive [cytotoxic, partial curve]",
Cc1ccc[n+](CC(=O)/C=C2\N(C)c3ccccc3C2(C)C)c1,,inconclusive: -23.6% [cytotoxic]
CCn1cc(C(=O)Nc2ncccc2O)c(=O)c2cc(F)c(N3CCN(C(=O)c4ccco4)CC3)cc21,inactive,
CC(C)(C)c1ccc(C(=O)NC(=S)NNC(=O)COc2ccccc2)cc1,"inconclusive [cytotoxic, single point]",
CC(=O)C1=C(c2cccc([N+](=O)[O-])c2)N(C(C)=O)n2c(C)nnc2S1,"inconclusive [cytotoxic, single point]",
O=C(Cn1cnc2ccccc2c1=O)Nc1nnc(SCc2ccccc2)s1,"inconclusive [rising, single point]",
COc1ccccc1-c1nnc2n1N=C(c1ccc(O)c(O)c1)CS2,"inconclusive [cytotoxic, full curve]",
OCCNc1nc(Nc2ccc(Br)cc2)nc2ccccc12,"inconclusive [cytotoxic, single point]",
Cc1ccc(NC(=S)N/N=C/c2c(Cl)cccc2Cl)c(C)c1,active: 0.517 µM,
CN(Cc1ccccc1)c1ncc(C=O)s1,inactive,
Cc1nc(-c2ccc(S(=O)(=O)N3CCN(c4ccccc4)CC3)cc2)co1,inactive,
COc1cc2c(cc1NS(=O)(=O)N1CCCCC1)oc1ccccc12,"inconclusive [cytotoxic, single point]",
CC(C)c1ccc(N=C2NN=C(c3cccs3)CS2)cc1,"inconclusive [cytotoxic, single point]",
COC(=O)c1[nH]c2ccc(C)cc2c1NC(=O)CN1CCN(c2ccc(F)cc2)CC1,inactive,
COc1ccc(CN2CCC2(C)C(=O)Nc2cnc3ccccc3c2)c2ccccc12 (stereo unspecified),"inconclusive [cytotoxic, single point]",
Cc1ccc2nc(C(F)(F)F)c(C#N)c(N)c2c1,active: 10 µM,
CCOC(=O)c1[nH]c2c(c1C)C(=O)CC(c1ccco1)C2 (stereo unspecified),active: 0.92 µM,
CC(=O)Oc1cccc2c1C(=O)c1c(OC(C)=O)cc(C(=O)O)cc1C2=O,"inconclusive [cytotoxic, partial curve]",
COc1ccc2c3n(nc2c1)CCN=C3c1ccc(Cl)cc1,inactive,
CCCCN1CNC(=S)N(CCc2ccc(OCC)c(OCC)c2)C1,"inconclusive [cytotoxic, single point]",

Structure (SMILES),Potency,"activity, negative = toxicity"
Nc1ncnc2c1ncn2[C@@H]1O[C@H](C(=O)N[C@H]2c3ccccc3C[C@H]2OC=O)[C@@H](O)[C@H]1O,inactive,
Cc1ccc(-c2nc(CSCC(=O)NCc3cccnc3)c(C)o2)cc1,inactive,
COc1ccc(CC(=O)Nc2ccc(-c3noc(-c4cc(OC)c(OC)c(OC)c4)n3)cc2)cc1,"inconclusive [cytotoxic, partial curve]",
CN(C)S(=O)(=O)c1ccc(Cl)c(NC(=O)COC(=O)C2CSC3(C)CCC(=O)N23)c1 (stereo unspecified),inactive,
Cc1cc(C)c(C(O)c2ncc(-c3ccccc3F)[nH]2)c(C)c1 (stereo unspecified),,inconclusive: -32.9% [cytotoxic]
CCC(=O)NC(=S)Nc1cccc(NC(=O)c2ccccc2)c1,inactive,
Cn1c(=O)c2c(nc(CN3CCc4ccccc4C3)n2CC(=O)c2ccccc2)n(C)c1=O,"inconclusive [cytotoxic, single point]",
CCOc1ccc(/C(O)=C2/C(=O)C(=O)N(c3ccccn3)C2c2ccc(Cl)cc2)c(C)c1 (stereo unspecified),"inconclusive [cytotoxic, single point]",
CCOC(=O)C1CCCNC1=O (stereo unspecified),inactive,
c1cncc(Nc2c3ccccc3nc3ccccc23)c1,"inconclusive [cytotoxic, single point]",
Cc1cccc(Nc2nc(-c3ccc(O)c(O)c3)cs2)n1,"inconclusive [cytotoxic, single point]",
Cc1ccc(CSc2nc3ccncc3n2CC(=O)Nc2cc(C)cc(C)c2)cc1,"inconclusive [cytotoxic, single point]",
O=c1[nH]nc(Cc2ccc(-c3cccc(Cl)c3)o2)c2ccccc12,"inconclusive [cytotoxic, partial curve]",
COc1cc(OC)cc(C(=O)Nc2ccc(NC(=O)c3ccco3)c(C)c2)c1,active: 23.1 µM,
COc1ccc(S(=O)(=O)N2CCOC2CNC(=O)C(=O)NCCc2ccccc2)cc1C (stereo unspecified),"inconclusive [cytotoxic, single point]",
COc1cccc(CNc2ncc(C(=O)Nc3cc(OC)c(OC)c(OC)c3)c(C)n2)c1,"inconclusive [cytotoxic, single point]",
CCOc1ccc(OCc2ccc(C(=O)N3N=C(C(F)F)CC3(O)C(F)F)o2)cc1 (stereo unspecified),"inconclusive [cytotoxic, single point]",
CCCNC(=O)c1cc(S(=O)(=O)N2CCC3(CC2)OCCO3)ccc1F,inactive,
O=C(NCc1ccco1)c1cc2n(n1)C(C(F)(F)F)CC(c1ccc(Br)cc1)N2 (stereo unspecified),"inconclusive [cytotoxic, single point]",
Cc1cc(C)c(S(=O)(=O)ON2C(=O)c3ccccc3C2=O)cc1C,active: 10.3 µM,
Cc1cc(Cl)ccc1OC(C)c1nnc(N)s1 (stereo unspecified),"inconclusive [cytotoxic, single point]",
CCCNC(=S)Nc1ccc(Cl)cc1C,inactive,
CCOc1ccc2oc(C(=O)NC3CCN(Cc4ccccc4)CC3)c(C)c2c1,"inconclusive [cytotoxic, single point]",
